In PubChem BioAssay AID1454 (National Center for Advancing Translational Sciences (NCATS), 2008):
Screen size: about 130,000 compounds; about 550 (0.42%) were called active. The inconclusive results got no clear call from the source; some entries with a clear call stand among them for comparison. The call rests on the fitted dose curve; in most records, active means well fitted inhibition curve with a large enough effect; inconclusive means small, poorly fitted or top-dose-only effect, or effect the other way; inactive means flat fitted curve, though single readings scatter. No potency is given beside an inconclusive call; the fits are too rough.
Potency means the concentration at half of the fitted maximal effect; tags describe the fitted curve by direction and shape.

Experiment: qHTS Assay for Inhibitors of the ERK Signaling Pathway using a Homogeneous Screening Assay; Stimulation with EGF; further: nearly all actives have a fitted effect of over 55% in size;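 on activity change, negative = inhibition: plate controls were stimulated vehicle wells for no effect and unstimulated vehicle basal for full effect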
Conditions: HEK293-V1b, EGF-stimulated phospho-ERK AlphaScreen; activity change, negative = inhibition: at the top concentration
In short: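 In this qHTS, HEK293 cells with stable type-1 vasopressin (V1b) receptor were exposed to compound at 37C for 30 min, stimulated 5 min with EGF at 25 nM, lysed, and probed for phospho-ERK by AlphaScreen.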
With `CCCCC(C)n1[nH]c(=O)c2c(C)cc(C)nc21` (configuration not stated) the “activity change, negative = inhibition” value was inactive: -7.9% [at 57.5 µM].
In the case of `CC1CCN(C2=C(NS(=O)(=O)c3ccc(Cl)cc3)C(=O)c3ccccc3C2=O)CC1`, the Potency is reported as active: 15.8 µM.
In the case of `COc1ccc(N2CCN(C(=O)CN3CCN(c4nc(-c5ccc(F)cc5)cs4)CC3)CC2)cc1`, the Potency is reported as inconclusive [inhibitor, partial curve].
For `Cc1cccc(OCc2n(CC(=O)OC3CC(C)CCC3C(C)C)c3ccccc3[n+]2C)c1` (configuration not stated), the Potency was inconclusive [inhibitor, single point].
In the case of `Cc1nc2ccccc2nc1N/N=C/c1ccc(O)cc1O`, the Potency is reported as inconclusive [inhibitor, single point].
In the case of `Cc1ccsc1/C=N\NC(=O)c1ccc2c(c1)OCO2`, the Potency is reported as inconclusive [inhibitor, single point].
For `Clc1ccc(-n2nnc(-c3cccnc3Cl)n2)cc1Cl`, the Potency was inconclusive [inhibitor, single point].
For `CN(c1ccccc1)S(=O)(=O)c1cccc(NC(=O)CN2CCCc3ccccc32)c1`, the Potency was inconclusive [inhibitor, partial curve].
In the case of `OCCC1CN(Cc2ccccc2-c2ccco2)CCN1Cc1ccsc1` (configuration not stated), the Potency is reported as inconclusive [inhibitor, partial curve, poor fit].
With `Cc1ccc2c(Cl)cc(Cl)c(OCC(=O)N3CCCC3)c2n1` the “activity change, negative = inhibition” value was inactive: 6.28%.
In the case of `Cc1cccc2cc(-c3ccccc3)c(-c3ccccc3)c[n+]12`, the “activity change, negative = inhibition” value is reported as inactive: -9.7%.
For `CC1O[C@@H](O[C@@H]2C(O)C[C@H](O[C@@H]3C(O)C[C@@H](OC4CC[C@@]5(C)C6CC(O)[C@@]7(C)C(C8=CC(=O)OC8)CC[C@@]7(O)C6CC[C@@H]5C4)OC3C)OC2C)CC(O)[C@H]1O` (some centres not stated), the “activity change, negative = inhibition” value was inactive: 26.7%.
For `COc1ccc(-c2oc3cc(O[C@@H]4OC(CO)C(O)C(O)C4O)c(OC)c(O)c3c(=O)c2OC)cc1O` (some centres not stated), the “activity change, negative = inhibition” value was inactive: 23.2%.
In the case of `Cc1nc2ccc(S(=O)(=O)Nc3cccc(-c4nc5cccnc5s4)c3C)cc2s1`, the Potency is reported as inconclusive [inhibitor, single point].
In the case of `CC(C)(C)c1nnc(N/N=C/c2ccc(Br)cc2)n(N)c1=O`, the Potency is reported as inconclusive [inhibitor, single point].
With `N#CC(C#N)=C1C=CC=CN1/C(=C\c1ccco1)C(=O)c1ccccc1` the Potency was active: 14.1 µM.
For `COc1ccccc1N1CCN(/N=C/c2cc([N+](=O)[O-])ccc2Cl)CC1`, the Potency was inconclusive [inhibitor, partial curve].
In the case of `O=C(NCc1ccncc1)C(=O)Nc1nc(C23CC4CC(CC(C4)C2)C3)cs1`, the Potency is reported as inconclusive [inhibitor, single point].
With `CCN1C/C(=C\c2cccc([N+](=O)[O-])c2)C(=O)/C(=C/c2cccc([N+](=O)[O-])c2)C1` the Potency was inconclusive [inhibitor, full curve, poor fit].
With `CSC(=NC#N)N1CCN(c2ccc([N+](=O)[O-])cc2)CC1` the Potency was inconclusive [inhibitor, partial curve].
In the case of `O=C(Nc1cccn(Cc2ccccc2Cl)c1=O)NC1CCCCC1`, the Potency is reported as inconclusive [inhibitor, partial curve].
With `O=C(Nc1ccccc1)N1CCCC2(CCN(C(=O)c3cccc(F)c3)CC2)C1` the “activity change, negative = inhibition” value was inactive: -2.43%.
In the case of `CCOC(=O)c1ccccc1NC(=O)CN1CCC(n2nnc3cc(C(F)(F)F)ccc32)CC1`, the Potency is reported as inconclusive [inhibitor, partial curve].
In the case of `COc1ccccc1NC(=S)NC1CCC(CC2CCC(NC(=S)Nc3ccccc3OC)CC2)CC1` (configuration not stated), the “activity change, negative = inhibition” value is reported as inactive: -0.529%.
For `COc1ccc(CNC(=O)c2c(C)oc3c2C(=O)c2ccccc2C3=O)cc1`, the “activity change, negative = inhibition” value was inactive: -0.0029%.
In the case of `COc1cccc(N2CC(C(=O)Nc3c(C)cccc3C)CC2=O)c1` (configuration not stated), the “activity change, negative = inhibition” value is reported as inactive: -8.02%.
With `O=C(COC(=O)CNC(=O)c1ccco1)NCc1ccc(F)cc1` the “activity change, negative = inhibition” value was inactive: -7.24%.
For `NC(=O)COC(=O)c1cc(Cl)cc(Cl)c1N`, the “activity change, negative = inhibition” value was inactive: -2.6%.
For `COCCCn1c(=S)[nH]c2sc3c(c2c1=O)CCCS3`, the “activity change, negative = inhibition” value was inactive: 8.01%.
In the case of `COc1ccc(/C=N/NC(=O)c2cccnc2)cc1COc1ccc([N+](=O)[O-])c(C)c1`, the Potency is reported as inconclusive [inhibitor, single point].
For `CC(=O)N1CCc2cc(N=NC3=C(O)CC(C)(C)CC3=O)ccc21`, the Potency was inconclusive [inhibitor, single point].
With `O=C(NCc1cccc(Cl)c1)c1cc(COc2ccc3ncccc3c2)on1` the Potency was inconclusive [inhibitor, partial curve].
With `CN=C1N[C@H](c2ccccc2)N(c2ccccc2)S1` the “activity change, negative = inhibition” value was inactive: -17.3%.
In the case of `O=C(/C=C/c1ccc(Cl)cc1)Nc1ccc(CN2CCOCC2)cc1`, the Potency is reported as inconclusive [inhibitor, single point].
For `O=C1C(Nc2ccc(O)cc2)=C/C(=N/S(=O)(=O)c2cccs2)c2ccccc21`, the Potency was active: 17.8 µM.
In the case of `Clc1ccc(-c2cc(C3CCNCC3)[nH]n2)c(Cl)c1`, the Potency is reported as inconclusive [inhibitor, partial curve].
For `CCc1ccc(NS(=O)(=O)c2ccc3[nH]cc(C(=O)NCC4CCCO4)c(=O)c3c2)cc1` (configuration not stated), the Potency was inconclusive [activator, single point].
In the case of `COc1ccc(OC)c2c(=S)c3ccccc3[nH]c12`, the “activity change, negative = inhibition” value is reported as inactive: -0.664%.
In the case of `N/C(=N\OC(=O)c1cccc(Br)c1)c1ccncc1`, the Potency is reported as inconclusive [inhibitor, partial curve].
For `COC(=O)c1ccc(C(NC(=O)OCc2ccccc2)/C(I)=C/[C@@H](C)C(=O)NCc2ccc(OC)c(O)c2)cc1` (some centres not stated), the Potency was inconclusive [inhibitor, single point].
In the case of `Cc1onc(-c2ccccc2)c1C(=O)N/N=C/C=C/c1ccccc1`, the Potency is reported as active: 17.8 µM.
For `C/C(=N/NC(=O)CC(=O)N/N=C(\C)c1ccc([N+](=O)[O-])cc1)c1ccc([N+](=O)[O-])cc1`, the “activity change, negative = inhibition” value was inactive: 10.6% [at 57.5 µM].
In the case of `N[C@@H]1C(O)OC(CO)C(O)C1O` (some centres not stated), the “activity change, negative = inhibition” value is reported as inactive: 12.4%.
For `CCCCc1ccc(N=N/C(C(=O)Nc2cc(OC)c(NC(C)=O)cc2OC)=C(/C)O)cc1`, the Potency was inconclusive [inhibitor, single point].
With `COC(=O)c1c(-c2ccc(C)cc2)csc1N` the Potency was inconclusive [inhibitor, partial curve, poor fit].
For `O=C(Nc1ccc(Cl)cc1)N1CCN(c2ncccn2)CC1`, the Potency was inconclusive [inhibitor, single point].
With `Cc1nc(C)c(-c2csc(Nc3cccc(O)c3)n2)s1` the Potency was inconclusive [inhibitor, single point].
